{"source": "patent US11207320B2", "about": "“Compositions and methods for cancer expressing PDE3A or SLFN12” (The Broad Institute, Inc., priority 2015, dated 2021)", "system": "766 cancer cell lines", "assay": "Large-scale cell-line viability measurements (766 cancer cell lines, 72 h, AUC)", "format": "cell-based, human", "description": "Cell lines were treated for 72 hours with concentrations ranging from 66.4 μM-2 nM in 2-fold step dilutions.\nTo characterize cellular sensitivity to DNMDP further, 766 genomically characterized cancer cell lines were screened for DMNDP sensitivity at concentrations ranging from 66.4 μM to 2 nM in 2-fold dilution steps for 72 hours. From these cell lines, 22 cell lines were categorized as sensitive with a robust Z-score lower than −4, which represented multiple lineages including multiple melanoma cell lines, amongst others (Table 1).\nThe sensitivity of […] cancer cell lines (CCLs) was measured drawn from 23 different lineages to DNMDP. Each cell line was plated in its preferred media in white opaque 1536-plates at a density of 500 cells/well. After incubating overnight, DNMDP was added by acoustic transfer at 16 concentrations ranging from 66.4 μM-2 nM in 2-fold steps in duplicate (Labcyte Echo 555, Labcyte Inc., Sunnyvale, Calif.). After 72 hours treatment, cellular ATP levels were measured as a surrogate for viability (CELLTITERGLO®, Promega Corporation, Madison, Wis.) according to manufacturer's protocols using a ViewLux Microplate Imager (PerkinElmer, Waltham, Mass.) and normalized to background (media-only) and vehicle (DMSO)-treated control wells.\nConcentration response curves were fit using nonlinear fits to 2- or 3-parameter sigmoid functions through all 16 concentrations with the low-concentration asymptote set to the DMSO-normalized value, and an optimal 8-point dose curve spanning the range of compound-sensitivity was identified. The area under the 8-point dose curve (AUC) was computed by numeric integration as a metric for sensitivity for further analysis. Similar sensitivity measurements have been obtained for a collection of 480 other compounds, enabling analyses that identify cell lines responding uniquely to DNMDP (see Broad Institute Cancer Therapeutics Response Portal, a dataset to identify comprehensively relationships between genetic and lineage features of human cancer cell lines and small-molecule sensitivities for complete list of compounds).", "key": {"[1]": {"settings": "cell line NUGC4, STOMACH, 72 hours"}, "[2]": {"settings": "cell line OAW42, OVARY, 72 hours"}, "[3]": {"settings": "cell line OCIAML3 (HAEMATOPOIETIC AND LYMPHOID TISSUE)"}, "[4]": {"settings": "cell line OCIM1, HAEMATOPOIETIC AND LYMPHOID TISSUE, 72 hours"}, "[5]": {"settings": "cell line OV56, OVARY, 72 hours"}, "[6]": {"settings": "cell line P3HR1, HAEMATOPOIETIC AND LYMPHOID TISSUE, 72 hours"}, "[7]": {"settings": "cell line P12ICHIKAWA (HAEMATOPOIETIC AND LYMPHOID TISSUE)"}, "[8]": {"settings": "cell line PECAPJ49 (UPPER AERODIGESTIVE TRACT)"}, "[9]": {"settings": "cell line PFEIFFER (HAEMATOPOIETIC AND LYMPHOID TISSUE)"}, "[10]": {"settings": "cell line RAJI (HAEMATOPOIETIC AND LYMPHOID TISSUE)"}, "[11]": {"settings": "cell line RCHACV (HAEMATOPOIETIC AND LYMPHOID TISSUE)"}, "[12]": {"settings": "cell line RCM1 (LARGE INTESTINE)"}, "[13]": {"settings": "cell line RI1, HAEMATOPOIETIC AND LYMPHOID TISSUE, 72 hours"}, "[14]": {"settings": "cell line RL952, ENDOMETRIUM, 72 hours"}}, "note": "The source gives many values for each of these; only a part stands here.", "data": [{"smiles": "CCN(CC)c1ccc(C2=NNC(=O)CC2C)cc1[N+](=O)[O-]", "note": "(centres unmarked) [DNMDP, 6-(4-(diethylamino)-3-nitrophenyl)-5-methyl-4,5-dihydropyridazin-3(2H)-one]", "values": [{"measurement": "Robust Z-score", "setting": "cell line NUGC3 (STOMACH)", "value": 0.3338}, {"measurement": "DNMDP AUC", "setting": "[1]", "value": 7.2991}, {"measurement": "Robust Z-score", "setting": "[1]", "value": 0.6974}, {"measurement": "DNMDP AUC", "setting": "[2]", "value": 7.1038}, {"measurement": "Robust Z-score", "setting": "[2]", "value": 0.4924}, {"measurement": "DNMDP AUC", "setting": "cell line OC314 (OVARY)", "value": 7.0273}, {"measurement": "Robust Z-score", "setting": "cell line OC314 (OVARY)", "value": 0.4121}, {"measurement": "DNMDP AUC", "setting": "[3]", "value": 6.7152}, {"measurement": "Robust Z-score", "setting": "[3]", "value": 0.08455}, {"measurement": "DNMDP AUC", "setting": "[4]", "value": 7.1253}, {"measurement": "Robust Z-score", "setting": "[4]", "value": 0.515}, {"measurement": "DNMDP AUC", "setting": "cell line OE19 (OESOPHAGUS)", "value": 6.7273}, {"measurement": "Robust Z-score", "setting": "cell line OE19 (OESOPHAGUS)", "value": 0.09725}, {"measurement": "DNMDP AUC", "setting": "cell line OE33 (OESOPHAGUS)", "value": 6.5749}, {"measurement": "Robust Z-score", "setting": "cell line OE33 (OESOPHAGUS)", "value": "−0.06272"}, {"measurement": "DNMDP AUC", "setting": "cell line OV7 (OVARY)", "value": 6.7346}, {"measurement": "Robust Z-score", "setting": "cell line OV7 (OVARY)", "value": 0.1049}, {"measurement": "DNMDP AUC", "setting": "[5]", "value": 7.2957}, {"measurement": "Robust Z-score", "setting": "[5]", "value": 0.6939}, {"measurement": "DNMDP AUC", "setting": "cell line OV90 (OVARY)", "value": 6.7381}, {"measurement": "Robust Z-score", "setting": "cell line OV90 (OVARY)", "value": 0.1086}, {"measurement": "DNMDP AUC", "setting": "cell line OVCAR4 (OVARY)", "value": 6.5755}, {"measurement": "Robust Z-score", "setting": "cell line OVCAR4 (OVARY)", "value": "−0.06209"}, {"measurement": "DNMDP AUC", "setting": "cell line OVCAR8 (OVARY)", "value": 6.8637}, {"measurement": "Robust Z-score", "setting": "cell line OVCAR8 (OVARY)", "value": 0.2404}, {"measurement": "DNMDP AUC", "setting": "cell line OVISE (OVARY)", "value": 6.6514}, {"measurement": "Robust Z-score", "setting": "cell line OVISE (OVARY)", "value": 0.01758}, {"measurement": "DNMDP AUC", "setting": "cell line OVK18 (OVARY)", "value": 6.9579}, {"measurement": "Robust Z-score", "setting": "cell line OVK18 (OVARY)", "value": 0.3393}, {"measurement": "DNMDP AUC", "setting": "cell line OVKATE (OVARY)", "value": 6.8742}, {"measurement": "Robust Z-score", "setting": "cell line OVKATE (OVARY)", "value": 0.2514}, {"measurement": "DNMDP AUC", "setting": "cell line OVSAHO (OVARY)", "value": 6.7028}, {"measurement": "Robust Z-score", "setting": "cell line OVSAHO (OVARY)", "value": 0.07153}, {"measurement": "DNMDP AUC", "setting": "[6]", "value": 7.2973}, {"measurement": "Robust Z-score", "setting": "[6]", "value": 0.6955}, {"measurement": "DNMDP AUC", "setting": "[7]", "value": 6.8951}, {"measurement": "Robust Z-score", "setting": "[7]", "value": 0.2734}, {"measurement": "DNMDP AUC", "setting": "cell line PANC1 (PANCREAS)", "value": 7.0096}, {"measurement": "Robust Z-score", "setting": "cell line PANC1 (PANCREAS)", "value": 0.3936}, {"measurement": "DNMDP AUC", "setting": "cell line PANC0203 (PANCREAS)", "value": 7.0662}, {"measurement": "Robust Z-score", "setting": "cell line PANC0203 (PANCREAS)", "value": 0.453}, {"measurement": "DNMDP AUC", "setting": "cell line PANC0403 (PANCREAS)", "value": 6.5578}, {"measurement": "Robust Z-score", "setting": "cell line PANC0403 (PANCREAS)", "value": "−0.08067"}, {"measurement": "DNMDP AUC", "setting": "cell line PANC0813 (PANCREAS)", "value": 6.751}, {"measurement": "Robust Z-score", "setting": "cell line PANC0813 (PANCREAS)", "value": 0.1221}, {"measurement": "DNMDP AUC", "setting": "cell line PATU8902 (PANCREAS)", "value": 6.9874}, {"measurement": "Robust Z-score", "setting": "cell line PATU8902 (PANCREAS)", "value": 0.3703}, {"measurement": "DNMDP AUC", "setting": "cell line PATU8988T (PANCREAS)", "value": 6.8099}, {"measurement": "Robust Z-score", "setting": "cell line PATU8988T (PANCREAS)", "value": 0.184}, {"measurement": "DNMDP AUC", "setting": "cell line PC3 (PROSTATE)", "value": 6.9226}, {"measurement": "Robust Z-score", "setting": "cell line PC3 (PROSTATE)", "value": 0.3022}, {"measurement": "DNMDP AUC", "setting": "[8]", "value": 6.7927}, {"measurement": "Robust Z-score", "setting": "[8]", "value": 0.1659}, {"measurement": "DNMDP AUC", "setting": "[9]", "value": 6.6804}, {"measurement": "Robust Z-score", "setting": "[9]", "value": 0.04802}, {"measurement": "DNMDP AUC", "setting": "cell line PK1 (PANCREAS)", "value": 6.6156}, {"measurement": "Robust Z-score", "setting": "cell line PK1 (PANCREAS)", "value": "−0.02"}, {"measurement": "DNMDP AUC", "setting": "cell line PK45H (PANCREAS)", "value": 6.5666}, {"measurement": "Robust Z-score", "setting": "cell line PK45H (PANCREAS)", "value": "−0.07143"}, {"measurement": "DNMDP AUC", "setting": "cell line PK59 (PANCREAS)", "value": 6.7163}, {"measurement": "Robust Z-score", "setting": "cell line PK59 (PANCREAS)", "value": 0.0857}, {"measurement": "DNMDP AUC", "setting": "cell line PLCPRF5 (LIVER)", "value": 6.584}, {"measurement": "Robust Z-score", "setting": "cell line PLCPRF5 (LIVER)", "value": "−0.05316"}, {"measurement": "DNMDP AUC", "setting": "cell line PSN1 (PANCREAS)", "value": 6.6403}, {"measurement": "Robust Z-score", "setting": "cell line PSN1 (PANCREAS)", "value": 0.005931}, {"measurement": "DNMDP AUC", "setting": "cell line QGP1 (PANCREAS)", "value": 6.9517}, {"measurement": "Robust Z-score", "setting": "cell line QGP1 (PANCREAS)", "value": 0.3328}, {"measurement": "DNMDP AUC", "setting": "[10]", "value": 7.0524}, {"measurement": "Robust Z-score", "setting": "[10]", "value": 0.4385}, {"measurement": "DNMDP AUC", "setting": "cell line RCC10RGB (KIDNEY)", "value": 6.9009}, {"measurement": "Robust Z-score", "setting": "cell line RCC10RGB (KIDNEY)", "value": 0.2795}, {"measurement": "DNMDP AUC", "setting": "[11]", "value": 6.6426}, {"measurement": "Robust Z-score", "setting": "[11]", "value": 0.008345}, {"measurement": "DNMDP AUC", "setting": "[12]", "value": 6.8231}, {"measurement": "Robust Z-score", "setting": "[12]", "value": 0.1978}, {"measurement": "DNMDP AUC", "setting": "cell line RERFLCMS (LUNG)", "value": 6.6512}, {"measurement": "Robust Z-score", "setting": "cell line RERFLCMS (LUNG)", "value": 0.01737}, {"measurement": "DNMDP AUC", "setting": "cell line RH41 (SOFT TISSUE)", "value": 7.0285}, {"measurement": "Robust Z-score", "setting": "cell line RH41 (SOFT TISSUE)", "value": 0.4134}, {"measurement": "DNMDP AUC", "setting": "[13]", "value": 7.5915}, {"measurement": "Robust Z-score", "setting": "[13]", "value": 1.004}, {"measurement": "DNMDP AUC", "setting": "[14]", "value": 7.1432}, {"measurement": "Robust Z-score", "setting": "[14]", "value": 0.5338}]}]}
